Reference: a collection of fitness landscapes (doi:10.1126/science.1257360)
Some of the results follow.

B1: PhoQ; a variant is named by its letters at X, in order, P23837 (parent)
chain: MKKLLRLFFPLSLRVRFLLATAAVVLVLSLAYGMVALIGYSVSFDKTTFRLLRGESNLFYTLAKWENNKLHVELPENIDKQSPTMTLIYDENGQLLWAQRDVPWLMKMIQPDWLKSNGFHEIEADVNDTSLLLSGDHSIQQQLQEVREDDDDAEMTHSVAVNVYPATSRMPKLTIVVVDTIPVELKSSYMVWSWFIYVLSANLLLVIPLLWVAAWWSLRPIEALAKEVRELEEHNRELLNPATTRELTSLVRNLNRLLKSERERYDKYRTTLTDLTHSLKTPLXXLQXXLRSLRSEKMSVSDAEPVMLEQISRISQQIGYYLHRASMRGGTLLSRELHPVAPLLDNLTSALNKVYQRKGVNISLDISPEISFVGEQNDFVEVMGNVLDNACKYCLEFVEISARQTDEHLYIVVEDDGPGIPLSKREVIFDRGQRVDTLRPGQGVGLAVAREITEQYEGKIVAGESMLGGARMEVIFGRQHSAPKDE

Variants of: B1
Experiment: enrichment ratio after two sorts for PhoP signalling (ratio (wild type AVST 3.29)); higher = more functional
Conditions: with PhoP (E. coli)

Variant | enrichment ratio
HLPH | ≤ 0.25
SHNF | 9.74
WVHH | ≤ 0.25
LNNT | ≤ 0.25
NRNY | ≤ 0.25
TLSR | 1.28
ERSF | ≤ 0.25
PCHQ | ≤ 0.25
WPNT | ≤ 0.25
WASD | ≤ 0.25
NMAP | ≤ 0.25
DWGI | ≤ 0.25
NMMR | ≤ 0.25
FDFA | 0.475
EQHP | ≤ 0.25
GCIC | 2.37
AEWH | 22.3
RYNR | ≤ 0.25
MLVT | ≤ 0.25
YPWD | ≤ 0.25
PPEV | ≤ 0.25
LQSE | ≤ 0.25
IDHI | ≤ 0.25
AQDE | ≤ 0.25

Variant | enrichment ratio
ERSR | ≤ 0.25
ALHS | ≤ 0.25
QSLG | 0.319
HFKP | ≤ 0.25
QPCF | ≤ 0.25
KRGQ | ≤ 0.25
SYIY | ≤ 0.25
RHIT | ≤ 0.25
HTQF | ≤ 0.25
APLH | ≤ 0.25
KETC | ≤ 0.25
YHGD | ≤ 0.25
VCVM | ≤ 0.25
GTGT | ≤ 0.25
ISYG | ≤ 0.25
NELS | 1.28
ASDT | ≤ 0.25
LHSS | ≤ 0.25
RGLC | ≤ 0.25
YKFQ | ≤ 0.25
KFFQ | ≤ 0.25
DHDS | ≤ 0.25
SSEM | ≤ 0.25
VHRQ | ≤ 0.25

Variant | enrichment ratio
FKAV | ≤ 0.25
LNVG | ≤ 0.25
NGPQ | ≤ 0.25
DSAS | ≤ 0.25
YFGN | ≤ 0.25
SEHG | ≤ 0.25
RLHH | ≤ 0.25
LLQR | ≤ 0.25
SHFC | ≤ 0.25
TMYI | ≤ 0.25
PKQS | ≤ 0.25
HIDR | ≤ 0.25
WYPS | 1.1
PHAK | ≤ 0.25
LTKM | ≤ 0.25
AVQP | ≤ 0.25
EPNN | ≤ 0.25
QGRS | ≤ 0.25
PRAV | 0.412
EYLE | ≤ 0.25
TNGN | 3.75
YAQM | ≤ 0.25
MRYS | ≤ 0.25
YCAK | ≤ 0.25

Variant | enrichment ratio
QGSW | ≤ 0.25
HYMS | ≤ 0.25
PKHP | ≤ 0.25
HMKN | ≤ 0.25
IFTK | ≤ 0.25
FNPF | ≤ 0.25
KTGW | ≤ 0.25
LCSY | ≤ 0.25
SHIE | ≤ 0.25
GNSE | ≤ 0.25
NAIK | ≤ 0.25
YSDR | ≤ 0.25
GGKI | ≤ 0.25
MFIN | ≤ 0.25
SVKH | ≤ 0.25
VPQH | ≤ 0.25
RNSR | ≤ 0.25
LVPW | ≤ 0.25
TTTM | 19.4
DTFI | ≤ 0.25
YTFH | ≤ 0.25
NYDL | ≤ 0.25
MQFN | ≤ 0.25
HLFF | ≤ 0.25

Variant | enrichment ratio
NNKK | ≤ 0.25
MSAT | 7.26
YCNA | ≤ 0.25
VPPH | ≤ 0.25
SRYM | ≤ 0.25
RYFP | ≤ 0.25
ISWC | ≤ 0.25
QHYF | ≤ 0.25
RYPW | ≤ 0.25
RQIN | ≤ 0.25
GSPY | ≤ 0.25
ITHV | ≤ 0.25
LWRH | ≤ 0.25
EYMK | ≤ 0.25
TFQQ | ≤ 0.25
QMDV | ≤ 0.25
EEYC | ≤ 0.25
AIIG | 3.91
SSEA | ≤ 0.25
LFNM | ≤ 0.25
IDDV | ≤ 0.25
NHMG | ≤ 0.25
PPFG | ≤ 0.25
TGAT | 18.1

Variant | enrichment ratio
KMPF | ≤ 0.25
TSPQ | ≤ 0.25
KQII | ≤ 0.25
SDRW | ≤ 0.25
WMGE | ≤ 0.25
WYIA | ≤ 0.25
THHI | 0.474
VGVV | 0.498
RPMS | ≤ 0.25
IMPI | ≤ 0.25
MYFN | ≤ 0.25
FLDI | ≤ 0.25
WDCS | ≤ 0.25
YRVQ | ≤ 0.25
LHFL | ≤ 0.25
IQYN | ≤ 0.25
DRIN | ≤ 0.25
GMLI | 9.73
TLTH | 1.24
VIPG | ≤ 0.25
HIQY | ≤ 0.25
RENH | ≤ 0.25
NRLQ | ≤ 0.25
THRD | ≤ 0.25

Variant | enrichment ratio
NIHI | ≤ 0.25
YFGI | ≤ 0.25
DSMG | ≤ 0.25
VSDP | ≤ 0.25
IQSV | 0.309
GGVD | ≤ 0.25
GFIF | ≤ 0.25
PNVH | ≤ 0.25
FNCA | ≤ 0.25
AITV | 6.12
FYDN | ≤ 0.25
SRCQ | 1.15
YRWI | ≤ 0.25
PQEH | ≤ 0.25
MQNM | ≤ 0.25
VWRE | ≤ 0.25
TRYS | ≤ 0.25
RAAS | ≤ 0.25
FSME | 0.924
TVLA | 9
SQHI | ≤ 0.25
HMCS | ≤ 0.25
ESLP | ≤ 0.25
MPHT | ≤ 0.25

Variant | enrichment ratio
ITGP | ≤ 0.25
FVSH | ≤ 0.25
TTPD | ≤ 0.25
KNLY | ≤ 0.25
PDDK | ≤ 0.25
SHCW | ≤ 0.25
PDQT | ≤ 0.25
GLDW | ≤ 0.25
SSGA | 3.11
EMYW | ≤ 0.25
YNYF | ≤ 0.25
PVCR | ≤ 0.25
PFIS | ≤ 0.25
LLPP | ≤ 0.25
HWGY | ≤ 0.25
HVPY | ≤ 0.25
PVYY | ≤ 0.25
LPTM | ≤ 0.25
HGRY | ≤ 0.25
NWWV | ≤ 0.25
FQLF | 6.28
PRWY | ≤ 0.25
ELWT | ≤ 0.25
NKRC | ≤ 0.25

Variant | enrichment ratio
MCVW | ≤ 0.25
TARI | 1.12
AKWV | ≤ 0.25
KPSL | ≤ 0.25
SDSD | ≤ 0.25
NTWI | ≤ 0.25
FYCK | ≤ 0.25
HHNH | ≤ 0.25
WTID | ≤ 0.25
HVIY | ≤ 0.25
STAV | 5.94
TPAW | ≤ 0.25
WKLK | ≤ 0.25
PFPW | ≤ 0.25
WERM | ≤ 0.25
VIGA | ≤ 0.25
SSMV | 18.9
EMLG | ≤ 0.25
ANAA | 8.15
YGCQ | ≤ 0.25
EPFG | ≤ 0.25
TTPL | 0.341
GNFC | ≤ 0.25
DICI | ≤ 0.25

Variant | enrichment ratio
GDGQ | ≤ 0.25
WMNY | ≤ 0.25
PKWW | ≤ 0.25
DKAC | ≤ 0.25
SEYC | 4
YDRE | ≤ 0.25
RHCL | ≤ 0.25
EYDA | ≤ 0.25
DWLN | ≤ 0.25
QFLY | ≤ 0.25
MHMH | ≤ 0.25
VGCS | ≤ 0.25
SAQR | ≤ 0.25
PPAV | ≤ 0.25
HNYI | ≤ 0.25
RFLN | ≤ 0.25
HNEK | ≤ 0.25
DGVM | ≤ 0.25
TWGQ | ≤ 0.25
SDFR | ≤ 0.25
LKWL | ≤ 0.25
VDRT | ≤ 0.25
AWRL | ≤ 0.25
VEDK | ≤ 0.25

Variant | enrichment ratio
MPYI | ≤ 0.25
KVNI | ≤ 0.25
HSYP | ≤ 0.25
VCGC | ≤ 0.25
TRRI | 0.557
GWVP | ≤ 0.25
GPTL | ≤ 0.25
RQST | ≤ 0.25
WMTH | ≤ 0.25
SLKW | ≤ 0.25
HEIG | ≤ 0.25
NDSF | ≤ 0.25
GLTH | ≤ 0.25
LLTC | ≤ 0.25
GNTD | ≤ 0.25
SFFR | ≤ 0.25
ENMH | ≤ 0.25
PRTF | ≤ 0.25
IHRM | ≤ 0.25
PEAR | ≤ 0.25
WHIG | ≤ 0.25
KSKN | ≤ 0.25
DRFN | ≤ 0.25
PTGP | ≤ 0.25

Variant | enrichment ratio
AATQ | 7.77
MITK | ≤ 0.25
VYTF | ≤ 0.25
FNSW | ≤ 0.25
FTYS | ≤ 0.25
FGRI | ≤ 0.25
QFWA | ≤ 0.25
STTV | 6.32
MKCM | ≤ 0.25
HHTS | ≤ 0.25
KSKC | ≤ 0.25
GMLN | 0.729
MHCF | ≤ 0.25
AVLF | 1.97
SFKD | ≤ 0.25
QNMD | ≤ 0.25
RPMQ | ≤ 0.25
PQVC | ≤ 0.25
SQMT | 22.7
LKQR | ≤ 0.25
FLMQ | ≤ 0.25
FQYG | ≤ 0.25
RNSL | ≤ 0.25
FYIG | ≤ 0.25

Variant | enrichment ratio
NNMK | ≤ 0.25
DKNL | ≤ 0.25
VDMY | ≤ 0.25
GTNN | ≤ 0.25
HHEP | ≤ 0.25
NNIV | ≤ 0.25
HGAQ | ≤ 0.25
EDGL | ≤ 0.25
KEGT | ≤ 0.25
STHL | 0.507
ILKG | ≤ 0.25
HMDL | ≤ 0.25
ADRW | ≤ 0.25
FPNH | ≤ 0.25
MMCI | ≤ 0.25
SLAM | 6.76
TAFE | ≤ 0.25
GDTV | 13.7
